In paper PMC6919601, “Identification of Plasmodium dipeptidyl aminopeptidase allosteric inhibitors by high throughput screening” (PLoS ONE, 2019):
Out of some 110,000 compounds screened, about 230 (0.21%) showed an effect of 50% or more. This is one part of the list.

target: DPAP1 (Plasmodium falciparum, UniProt Q8IIJ9); assay: primary screen, percent inhibition; read by cleavage of a fluorogenic dipeptide substrate; higher = more effect of the substance; design: species or system P. falciparum D10 trophozoite lysates; single well
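Also: 30 min substrate incubation versus DMSO and 10 µM JCP410 controls.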

DPAP1, sequence (Q8IIJ9 whole entry, looked up): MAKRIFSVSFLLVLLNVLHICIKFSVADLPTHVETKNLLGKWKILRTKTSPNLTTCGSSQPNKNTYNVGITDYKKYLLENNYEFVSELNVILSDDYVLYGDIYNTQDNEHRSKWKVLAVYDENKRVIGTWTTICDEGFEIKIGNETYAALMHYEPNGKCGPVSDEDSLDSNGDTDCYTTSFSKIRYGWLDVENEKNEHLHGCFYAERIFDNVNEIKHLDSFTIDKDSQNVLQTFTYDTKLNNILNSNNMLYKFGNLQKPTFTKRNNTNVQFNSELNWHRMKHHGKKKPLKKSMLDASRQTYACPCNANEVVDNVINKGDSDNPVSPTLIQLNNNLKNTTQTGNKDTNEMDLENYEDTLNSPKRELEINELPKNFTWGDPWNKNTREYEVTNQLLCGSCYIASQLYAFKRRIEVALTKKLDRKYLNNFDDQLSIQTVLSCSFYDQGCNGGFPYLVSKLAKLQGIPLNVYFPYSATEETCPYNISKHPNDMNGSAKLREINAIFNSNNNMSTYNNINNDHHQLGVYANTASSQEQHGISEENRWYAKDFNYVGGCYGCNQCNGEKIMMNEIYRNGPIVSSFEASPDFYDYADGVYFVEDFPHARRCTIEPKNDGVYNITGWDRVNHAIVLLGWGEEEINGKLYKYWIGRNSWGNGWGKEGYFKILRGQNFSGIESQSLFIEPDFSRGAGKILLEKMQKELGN

Compound | % Inhibition @ 10 uM [%]
CCOC(=O)c1nccn1Cc1ccccc1Cl | 0.0198
Cc1cc2ccccc2n1CCNC(=O)c1ccc(-c2ccccc2)cc1 | 4.78
Cc1cccc(-n2ncc3c2ncn2nc(-c4ccccc4Cl)nc32)c1 | -0.386
CC(C)c1ccc(S(=O)(=O)c2cnc3ccc(Cl)cc3c2O)cc1 | -9.07
CC(C)C1=C2CCCCC2NC(=O)N1 (centres unmarked) | -2.51
Cn1c(-c2ccc(C#N)cc2)nc2ccccc21 | 5.55
CS(=O)(=O)N(CC(=O)N1CCN(c2ccc(F)cc2)CC1)c1ccc(Cl)c(C(F)(F)F)c1 | 1.62
CCCOc1ccc(C(=O)Nc2c(NC)c3ccccc3oc2=O)cc1 | -2.3
O=c1c(Cl)c(N2CCN(c3ccccn3)CC2)cnn1-c1nc2ccccc2o1 | -0.999
CN(CC(=O)NCc1ccccn1)S(=O)(=O)c1cccc2nsnc12 | 0.317
COCc1cc(C)nc2sc3c(c12)NC(c1ccco1)n1c-3nc2ccccc21 (centres unmarked) | -4.49
O=C(Cn1cnc2onc(-c3ccc(F)cc3)c2c1=O)NC1CCN(Cc2ccccc2)CC1 | 4.88
Cc1ccccc1N1CCN(CC#N)CC1 | 1.64
CCOC(=O)c1c(-c2ccc(C)cc2)csc1N | 8.16
Cc1cc(C)cc(NC(=O)c2ccc(Cl)cc2)c1 | 5.56
O=C(CSc1nc2ccc(NC(=O)c3ccccc3F)cc2s1)NCC1CCCO1 (centres unmarked) | 3.65
CN1CCN(CCc2nnc(S)n2-c2ccc(C(F)(F)F)cc2)CC1 | 5.69
CN1C(=O)CC(c2cn(Cc3ccccc3)c3ccccc23)C1=O (centres unmarked) | -7.35
Cc1cc(C)cc(NS(=O)(=O)Cc2ccccc2)c1 | -0.582
Cc1nn(C)c(C)c1NS(=O)(=O)c1ccccc1 | 0.414
O=C(O)c1ccc(-n2nc(C(F)(F)F)c3c2CCCC3)cc1 | -5.49
CCOc1ccc(-c2nn3c(Cc4ccccc4)nnc3s2)cc1 | 4.96

Compound | % Inhibition @ 10 uM [%]
CC(C)C[C@H](NC(=O)c1cccc(C(=O)N2CCN(C)CC2)c1)C(=O)NCC#N | -5.64
Cc1nn(Cc2cccc(C(=O)Nc3nccs3)c2)c(C)c1Br | -8.16
CC(C)C[C@H](NC(=O)c1ccc(-c2ccoc2)cc1)C(=O)NCC#N | -1.41
COc1cc(CN2CCc3c([nH]c4ccccc34)C2)cc2c1OCO2 | -5.11
CCOc1ccc(C(=O)C[n+]2ccc(C(=O)NCCO)cc2)cc1 | -3.69
Cc1oc2ncn(C)c(=O)c2c1C(=O)NCCCN1CCOCC1 | -3.95
Fc1ccccc1CN1CCN(Cc2ccccc2)CC1 | 1.63
CCOc1cc(-c2nc(-c3ccc(C)nc3OC)no2)cc(OCC)c1OCC | -3.13
CCOC(=O)c1cnc2ccc(OCC)cc2c1N1CCN(C)CC1 | -4.93
CC1(C)CC(=O)C(/C=N/C(CC(=O)O)C(=O)O)=C(O)C1 (centres unmarked) | 2.17
Cc1ccc2c(CN3CCN(C(=O)CCc4ccccc4)CC3)cc(=O)oc2c1 | -2.84
CN1CCN(C(=O)CSc2nc3ccc(N4C(=O)c5ccccc5C4=O)cc3s2)CC1 | -0.25
Cc1ccc(C)c(NC(=O)Cc2ccccc2)c1 | 2.46
COc1ccc2[nH]c(SCCOc3ccc(F)cc3)nc2c1 | -6.36
O=C(O)c1cccc(NC(=O)c2ccc(Br)c(S(=O)(=O)N3CCCCC3)c2)c1 | 2.73
CCS(=O)(=O)NCc1csc(C)n1 | -6.33
CC[n+]1cn(CC(O)COc2ccc(OC)cc2)c2ccccc21 (centres unmarked) | -1.6
O=C1O[C@@H]2C[C@H]3C[C@@H]2[C@@H]1[C@H]3C(=O)N1CC=C(c2ccccc2)CC1 | 2.21
CN(CC(=O)NCCc1ccccc1)S(=O)(=O)c1ccc(F)cc1 | 1.03
COc1ccc(C2C=C(c3cccnc3)Nc3ncnn32)c(OC)c1OC (centres unmarked) | 5.01
CC(C)=CCC/C(C)=C/CN1CCN(C/C=C/c2ccccc2)CC1 | 0.0792
O=C(NC1CCCc2ccccc21)C1CCN(S(=O)(=O)c2cccc3cccnc23)CC1 (centres unmarked) | 3.53

Compound | % Inhibition @ 10 uM [%]
CCOc1ccc(C2CC(=O)Nc3c2c(C)nn3-c2nc3ccccc3s2)cc1OC (centres unmarked) | -2.88
Fc1ccccc1CN1CCC(N2CCCCC2)CC1 | 3.15
COc1cccc(Cn2c(C)c(CNCc3cccnc3)c(C(=O)O)c2C)c1 | -5.49
Clc1cccc(N2CCN(C3CC4CCC3C4)CC2)c1 (centres unmarked) | -1.15
CCOc1ccc(C2C(C(=O)OC)=C(C)N=c3s/c(=C\c4ccccn4)c(=O)n32)cc1OCC (centres unmarked) | 1.91
CC1CCN(c2ccc3nnc(CCC(=O)NCC4CCCO4)n3n2)CC1 (centres unmarked) | -4.32
CCN(CC)c1ccc(NC(=O)C2CCCCC2)c(C)c1 | 1.17
CC(C)N1C(=O)S/C(=C/c2ccc3c(c2)n(C)c(=O)n3C)C1=O | -1.61
COc1ccc(CNC(=O)c2ccc3oc(=O)c(S(=O)(=O)c4ccc(F)cc4)cc3c2)cc1 | -1.3
CCc1nc(S(C)(=O)=O)c(C#N)cc1C | -0.143
CC(C)C(=O)NCCN1CCOCC1 | 1.83
CCOC(=O)Nc1ccc2c(c1)Nc1ccccc1C=C2 | -0.736
CCOC1=CC(=O)N(Cc2ccccc2)C1 | -5.31
CCOc1ccc(CN(CCO)CCO)cc1C(=O)OC | -10.9
COc1ccc(OC)c(CNS(=O)(=O)c2c(C)nc3scc(C)n3c2=O)c1 | -1.27
O=S(=O)(c1ccc(Br)cc1)N1CCN(S(=O)(=O)c2ccc3ccccc3c2)CC1 | 6.79
CCOC(=O)c1c(N)c(C#N)c(C)n1-c1ccc(Cl)cc1 | -7.99
CC1=C(c2ccc(C)cc2)S(=O)(=O)N=C1N1CCC(C)CC1 | 5.42
CC(=O)c1cn(CCCCn2cc(C(C)=O)c(=O)[nH]c2=O)c(=O)[nH]c1=O | -0.641
CN(C)CCCn1nnc2c(=O)oc3ccccc3c21 | -2.42
O=C(Cn1c(=O)sc2ccccc21)NC1CCCCC1 | 1.87
